According to the GPR68 mutational scans of Howard et al. (2025):

B1: GPR68, Q15743 (parent)
chain: MGNITADNSSMSCTIDHTIHQTLAPVVYVTVLVVGFPANCLSLYFGYLQIKARNELGVYLCNLTVADLFYICSLPFWLQYVLQHDNWSHGDLSCQVCGILLYENIYISVGFLCCISVDRYLAVAHPFRFHQFRTLKAAVGVSVVIWAKELLTSIYFLMHEEVIEDENQHRVCFEHYPIQAWQRAINYYRFLVGFLFPICLLLASYQGILRAVRRSHGTQKSRKDQIQRLVLSTVVIFLACFLPYHVLLLVRSVWEASCDFAKGVFNAYHFSLLLTSFNCVADPVLYCFVSETTHRDLARLRGACLAFLTCSRTGRAREAYPLGAPEASGKSGAQGEEPELLTKLHPAFQTPNSPGSGGFPTGRLA

What was measured:
[1] = variants of: B1; assay: cAMP reporter score (Enrich2 score, wild type = 0); higher = more signal; HEK293T, FACS bins
[2] = variants of: B1; assay: surface expression score (Enrich2 score, wild type = 0); higher = more signal; HEK293T, FACS bins

Variant	cAMP reporter score ([1]; pH 5.5)	cAMP reporter score ([1]; pH 6)	cAMP reporter score ([1]; pH 6, modulator: ogerin)	cAMP reporter score ([1]; pH 6.5, modulator: ogerin)	surface expression score [2]
L151H	-1.44	-1.44	-2.33	-1.22	-2.87
L151V	1.1	-0.186	0.505	0.963	1.7
L151Q	-1.12	–	-1.59	-1.41	-3.3
L151N	-1.23	–	-0.408	-0.523	-2.67
L151I	0.48	-1.24	-0.29	-0.991	-0.146
L151M	-0.606	0.161	-0.478	-0.563	-0.439
L151Y	-0.967	–	-1.58	-2.48	-1.55
L151R	-1.43	-1.03	–	-2.45	-2.75
L151P	0.931	1.22	-1.03	-0.384	-1.72
L151K	-2	-1.1	–	-2.21	-1.41
L151E	-1.2	-1.85	–	-1.31	–
L151F	-0.02	-0.609	-0.855	-1.26	0.26
L151T	-0.392	–	0.556	-0.433	-0.43
L151S	-1.79	–	-0.647	-1.84	–
L151W	-0.125	–	–	–	-0.361
L151A	-0.31	–	-0.63	-0.197	1.37
L151G	-0.304	-0.956	-0.749	-1.39	0.161
L151C	-0.762	-1.58	-1.91	–	-0.644
L151D	-2.43	-1.16	-1.01	-1.25	-1.85
E149_L150del	-1.98	-0.912	-2.35	-0.75	-2.46
L151_T152del	-1.2	-1.51	-0.997	-1.37	-1.85
F173_E174del	-1.8	-1.28	-1.43	-1.31	-2.03
H169_R170insGS	-1.44	-1.29	-1.11	-0.832	0.454
T152_S153insG	-1.54	-1.1	-1.06	-1.61	-0.123
Y155_F156insGS	-1.77	-1.78	-1	-1.57	-1.48
I154N	-0.289	-0.685	-0.065	-1.42	-2.25

Variant	cAMP reporter score ([1]; pH 5.5)	cAMP reporter score ([1]; pH 6)	cAMP reporter score ([1]; pH 6, modulator: ogerin)	cAMP reporter score ([1]; pH 6.5, modulator: ogerin)	surface expression score [2]
I154T	-0.536	-0.926	-0.197	-0.647	-0.698
I154L	0.386	–	0.736	0.034	0.843
I154C	0.613	-1.21	-0.289	-0.881	-1.35
I154V	-0.206	–	1.64	–	–
I154K	-1.56	–	–	-1.73	-2.46
I154W	0.392	0.568	0.095	-0.834	0.51
I154Q	-0.849	-1.02	-0.653	-1.25	-1.78
I154S	0.7	-0.509	-1.13	-0.426	–
I154E	-1.22	-1.36	-0.884	-1.31	-1.92
I154R	-1.5	-0.484	-1.13	-1.37	–
I154A	-0.214	-0.586	-1.03	-1.2	-0.494
I154G	0.417	-0.739	-0.225	-1.65	-0.72
I154P	-0.698	–	-0.732	-0.442	–
I154H	-0.799	–	-1.04	-0.687	-1.6
I154M	0.517	-0.579	0.069	-0.56	-0.188
I154F	0.322	–	-0.02	-0.525	–
E161del	0.279	-0.584	1.02	-0.108	1.02
N167_Q168insG	-0.648	0.1	-1.2	-0.512	0.345
V162_I163insG	-0.507	–	–	-2.04	2.43
S153_I154del	-0.897	-1.11	-2.16	-1.17	-1.71
L151_T152insGSG	-0.272	-0.801	-2.02	–	-0.99
S153_I154insGSG	-1.41	-1.34	-1.33	-1.47	-2.07
H175_Y176insG	-0.791	-0.774	-1.1	-1.68	0.243
H169del	-0.717	-0.675	-2.25	-1.51	0.133
F173P	-1.88	-1.31	-0.826	-1.35	-0.981
F173D	-1	-0.678	-1.52	-0.937	-1.38

Variant	cAMP reporter score ([1]; pH 5.5)	cAMP reporter score ([1]; pH 6)	cAMP reporter score ([1]; pH 6, modulator: ogerin)	cAMP reporter score ([1]; pH 6.5, modulator: ogerin)	surface expression score [2]
F173G	-0.584	-1.06	-1.38	-0.381	0.165
F173V	-1.46	-1.1	-1.72	-1.21	-0.251
F173Q	-0.703	-0.243	-1.33	-0.599	-0.433
F173W	0.338	1.76	1.03	1.52	0.687
F173E	-1.15	–	–	-1.77	-1.65
F173L	-1.32	-1.08	-1.68	-1.12	-1.22
F173T	-1.49	-1.26	–	-1.51	-0.351
F173H	-0.216	-0.457	–	-0.868	0.236
F173Y	0.044	-0.259	-1.29	-1.25	0.375
F173C	-1.68	-1.04	-1.4	-0.245	-1.17
F173K	-0.798	–	-1.14	-1.34	-0.474
F173M	-1.73	-1.75	-1.74	-0.916	0.12
F173I	-0.866	-0.562	-0.833	-0.952	-0.239
F173S	-1.53	-0.705	-1.42	-1.31	-0.432
M158_H159insG	-0.591	-0.834	-1.52	-1.57	-0.158
L151_T152insG	-1.85	-2.31	-1.14	-1.74	-0.426
F156_M158del	-1.24	–	-1.11	-0.449	-2.77
L151del	-0.393	-1.04	-2.01	-0.755	-0.651
T152_I154del	-1.31	-0.814	–	-1.52	-2.96
H169N	-1.23	-0.812	-1.56	-1.59	-0.614
H169S	-0.692	-1.02	-1.42	-0.78	0.84
H169I	-1.78	-1.64	-2.75	-1.77	-0.563
H169W	-0.998	-0.497	-1.59	-1.32	0.066
H169F	-0.22	-0.149	-1.02	-0.62	0.656
H169P	-0.674	-0.652	-1.03	-1.15	1.62
H169T	-0.422	-0.837	0.41	-0.738	1.64

Variant	cAMP reporter score ([1]; pH 5.5)	cAMP reporter score ([1]; pH 6)	cAMP reporter score ([1]; pH 6, modulator: ogerin)	cAMP reporter score ([1]; pH 6.5, modulator: ogerin)	surface expression score [2]
H169D	-0.482	-0.82	-1.06	-1.27	-0.186
H169A	-0.909	–	-0.82	-0.608	-0.086
H169Y	-0.824	-0.216	-1.04	-0.688	0.368
H169Q	-0.116	-0.475	-0.56	-0.422	-0.85
H169K	0.058	-0.717	0.027	-0.35	1.53
H169V	-0.498	–	-1.03	-1.41	0.801
H169L	-1.11	-1	-1.21	-1.12	0.251
H169E	0.968	-1.85	-0.432	-0.345	1.26
H169R	-0.204	-0.302	-0.332	-0.404	0.201
H169G	-1.28	-0.409	-0.87	-1.3	0.376
H169M	0.508	-0.668	-0.411	-0.428	0.937
H159_E160insGS	-1.37	-0.201	-0.843	-1.52	0.651
E166_N167del	-1.16	-1.14	-1.23	-0.926	1.37
T152C	-0.486	-1.11	-1.3	-1.37	0.175
T152H	0.204	–	0.079	-1.37	-0.532
T152E	-1.02	-1.04	-1.56	-1.96	-1.48
T152A	0.172	-0.135	-0.892	-0.495	0.007
T152R	-1.72	0.626	–	-1.03	-1.89
T152L	0.431	–	-0.236	-0.425	1.11
T152D	-0.926	-0.946	-2.23	-1.55	-1.6
T152I	-0.457	0.439	-0.722	-0.955	0.009
T152W	-0.792	-0.757	-2.04	-1.25	1.29
T152M	0.911	0.665	-0.103	-0.671	1.72
T152Y	-0.406	-1.28	-1.3	–	0.534
T152G	0.417	2.02	-0.614	-0.334	-0.674
T152S	0.436	0.947	-0.246	-0.42	–

Variant	cAMP reporter score ([1]; pH 5.5)	cAMP reporter score ([1]; pH 6)	cAMP reporter score ([1]; pH 6, modulator: ogerin)	cAMP reporter score ([1]; pH 6.5, modulator: ogerin)	surface expression score [2]
T152N	-0.392	-0.992	–	-0.437	–
T152F	0.642	-1.23	-0.132	-0.471	1.29
L150_L151insGSG	-2.34	-0.841	–	-1.44	-1.79
R170_C172del	-1.91	-0.6	-1.25	-1.71	-2.4
F156_L157insG	-0.663	–	-0.948	-0.677	–
Y155_F156del	-1.53	-0.32	-1.09	-0.883	-2.51
H175Y	-0.667	-0.272	-0.915	-0.644	-0.271
H175Q	-0.745	-0.55	-1.34	-0.267	0.263
H175A	0.464	0.165	-0.766	-0.151	0.508
H175L	-0.576	-0.355	-0.857	-0.862	0.021
H175M	-1.12	-1.39	-1.51	-1.94	1.56
H175N	-0.894	-0.466	-1.48	-1.1	0.157
H175G	-1.23	-1.59	-1.25	-1.41	0.149
H175F	-0.042	-0.141	-0.451	-0.605	1.08
H175V	-0.569	–	–	-0.795	0.527
H175D	-1.62	-0.497	-1.41	-1.56	-0.495
H175K	-0.343	–	0.281	1.86	0.529
H175W	-1.62	-2.05	-0.406	-0.613	0.498
H175R	-0.205	0.168	-0.345	0.732	-0.395
H175S	0.274	–	0.279	-0.412	0.248
H175I	-2.17	-0.923	-2.12	-1.96	-0.889
D165_E166insGSG	-0.653	-0.718	-0.62	0.131	0.95
S153_I154insG	-0.413	-0.861	–	-0.427	–
C172_F173insG	-0.805	-0.922	-1.5	-1.48	-0.574
I154_Y155insG	-1.71	-1.5	-1.89	-1.12	-1.32

Scores whose standard error is large were omitted. Not listed are two conditions whose scores span a narrow range. Names with del lack the residues named; names with ins carry added residues between the positions named. For some of these results: The concentration of ogerin is not given here.
